{"source": "the supplement of paper PMC9446081", "note": "Among all 39,000 compounds or so, about 220 (0.56%) showed activity. The list shows a part of the results.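 Note: static incubation at 37 °C against the wild-type strain, values averaged over two biological replicates.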", "data": [{"system": "Escherichia coli K-12 BW25113", "assay": "relative growth (OD600 normalised to plate interquartile mean) (fraction); higher = less growth inhibition, active = 0.2 or less", "settings": "50 µM; LB; incubation time: overnight (16-24 h)", "values": [{"compound": "CC(C)NC(=O)Nc1cccc2c1O[C@@H](CN(C)S(=O)(=O)c1ccc(F)cc1)[C@H](C)CN([C@@H](C)CO)C2=O", "relative growth": "inactive: 1.01"}, {"compound": "C[C@@H]1CN([C@H](C)CO)C(=O)Cc2cc(NC(=O)CCN3CCOCC3)ccc2O[C@H]1CN(C)CC1CCCCC1", "relative growth": "inactive: 0.949"}, {"compound": "COc1ccc(NC(=O)N(C)C[C@H]2OCc3cn(nn3)CCCC(=O)N([C@H](C)CO)C[C@H]2C)c(OC)c1", "relative growth": "inactive: 0.995"}, {"compound": "C[C@@H]1CCCCO[C@@H](CN(C)Cc2ccc(Cl)c(Cl)c2)[C@H](C)CN([C@H](C)CO)C(=O)c2cc(NC(=O)Nc3ccc(C(F)(F)F)cc3)ccc2O1", "relative growth": "inactive: 1.01"}, {"compound": "C[C@@H]1CN([C@@H](C)CO)C(=O)Cc2cc(NS(=O)(=O)c3cn(C)cn3)ccc2O[C@H]1CN(C)S(=O)(=O)c1cccs1", "relative growth": "inactive: 0.986"}, {"compound": "C[C@@H]1CCCCO[C@H](CN(C)C(=O)c2ccccc2)[C@H](C)CN([C@@H](C)CO)C(=O)c2cc(NC(=O)CCC(F)(F)F)ccc2O1", "relative growth": "inactive: 0.999"}, {"compound": "OC[C@@H]1CCCCN1", "relative growth": "inactive: 0.985"}, {"compound": "C[C@@H]1CN([C@@H](C)CO)C(=O)c2cccc(NS(=O)(=O)c3cccs3)c2O[C@@H]1CN(C)Cc1ccc(Cl)c(Cl)c1", "relative growth": "inactive: 1.01"}, {"compound": "CNC(=O)C[C@H]1CC[C@@H]2[C@H](COc3ccc(NC(=O)c4ccc(C(F)(F)F)cc4)cc3C(=O)N2C)O1", "relative growth": "inactive: 0.965"}, {"compound": "CN(C)CC(=O)N[C@H]1CC[C@@H](CCNS(=O)(=O)c2ccccc2)O[C@H]1CO", "relative growth": "inactive: 1.01"}, {"compound": "Cc1ccc(S(=O)(=O)N(C)C[C@@H]2Oc3ncc(C#CC4(O)CCCC4)cc3C(=O)N([C@@H](C)CO)C[C@@H]2C)cc1", "relative growth": "inactive: 1.02"}, {"compound": "C[N+]1(C)C2CCC1CC(OC(=O)C(O)c1ccccc1)C2.[Br-]", "note": "(configuration not stated)", "relative growth": "inactive: 0.924"}, {"compound": "C[C@@H]1CN([C@H](C)CO)C(=O)c2cc(NC(=O)Nc3cccc4ccccc34)ccc2O[C@@H](C)CCCCO[C@H]1CN(C)S(C)(=O)=O", "relative growth": "inactive: 0.99"}, {"compound": "C[C@@H]1CCCCO[C@H](CN(C)CC2CC2)[C@H](C)CN([C@@H](C)CO)C(=O)c2cc(NC(=O)NC3CCCCC3)ccc2O1", "relative growth": "inactive: 1.01"}, {"compound": "Cc1ccc(S(=O)(=O)N(C)C[C@@H]2OCCCC[C@H](C)Oc3ccc(NC(=O)Nc4ccccc4)cc3C(=O)N([C@H](C)CO)C[C@@H]2C)cc1", "relative growth": "inactive: 1.05"}, {"compound": "Cc1ccc(S(=O)(=O)N(C)C[C@H]2Oc3c(NC(=O)C4CCOCC4)cccc3C(=O)N([C@@H](C)CO)C[C@H]2C)cc1", "relative growth": "inactive: 1.02"}, {"compound": "Cc1ccc(S(=O)(=O)Nc2ccc3c(c2)C(=O)N([C@@H](C)CO)C[C@@H](C)[C@@H](CN(C)Cc2ccccc2)OCCCC[C@@H](C)O3)cc1", "relative growth": "inactive: 0.995"}, {"compound": "C[C@H]1CN([C@@H](C)CO)C(=O)Cc2cc(NC(=O)Nc3cc(Cl)cc(Cl)c3)ccc2O[C@H]1CN(C)S(=O)(=O)c1ccc(Oc2ccccc2)cc1", "relative growth": "inactive: 1.02"}, {"compound": "C[C@@H]1CCCCO[C@@H](CN(C)Cc2ccc(C(=O)O)cc2)[C@@H](C)CN([C@@H](C)CO)C(=O)c2cc(NS(=O)(=O)c3cccs3)ccc2O1", "relative growth": "inactive: 1.01"}, {"compound": "Cc1ccc(S(=O)(=O)Nc2ccc3c(c2)C(=O)N([C@@H](C)CO)C[C@@H](C)[C@H](CN(C)C(=O)C2CCCCC2)OCCCC[C@@H](C)O3)cc1", "relative growth": "inactive: 0.979"}, {"compound": "O=C(N[C@@H](c1ccc(-c2ccccc2)cc1)c1cnccn1)C1CCN(Cc2ccc(Oc3ccccc3)cc2)CC1", "relative growth": "inactive: 1.03"}, {"compound": "C[C@@H]1CN([C@H](C)CO)C(=O)c2cccc(NC(=O)Nc3cccc4ccccc34)c2O[C@@H]1CN(C)Cc1ccc(-c2ccccc2)cc1", "relative growth": "inactive: 1.02"}, {"compound": "CCCN(C)C[C@H]1OCCCC[C@@H](C)Oc2ccc(NC(=O)C3CCCCC3)cc2C(=O)N([C@H](C)CO)C[C@@H]1C", "relative growth": "inactive: 1.01"}, {"compound": "Cc1ccc(S(=O)(=O)Nc2ccc3c(c2)C(=O)N([C@@H](C)CO)C[C@H](C)[C@H](CN(C)Cc2ccc(-c4ccccc4)cc2)O3)cc1", "relative growth": "inactive: 1.03"}, {"compound": "C[C@@H]1CN([C@@H](C)CO)C(=O)Cc2cc(NC(=O)CCN3CCOCC3)ccc2O[C@@H]1CN(C)Cc1ccc(C(=O)O)cc1", "relative growth": "inactive: 1"}, {"compound": "C[C@@H]1CCCCO[C@H](CN(C)C(=O)NC2CCCCC2)[C@@H](C)CN([C@H](C)CO)C(=O)c2cc(NC(=O)Cc3ccccc3)ccc2O1", "relative growth": "inactive: 1"}, {"compound": "C[C@H]1CN([C@@H](C)CO)S(=O)(=O)c2ccc(C#CCN(C)C)cc2O[C@H]1CN(C)Cc1ccccc1F", "relative growth": "inactive: 1"}, {"compound": "Cc1noc(C)c1S(=O)(=O)Nc1ccc2c(c1)CC(=O)N([C@@H](C)CO)C[C@H](C)[C@H](CN(C)Cc1ccc(Oc3ccccc3)cc1)O2", "relative growth": "inactive: 1.01"}, {"compound": "COc1ccc(S(=O)(=O)N(C)C[C@H]2Oc3c(NS(=O)(=O)c4ccc(F)cc4)cccc3C(=O)N([C@H](C)CO)C[C@H]2C)cc1", "relative growth": "inactive: 1.01"}, {"compound": "C[C@H]1CN([C@@H](C)CO)S(=O)(=O)c2ccc(C3=CCCC3)cc2O[C@@H]1CN(C)C(=O)Cc1ccncc1", "relative growth": "inactive: 0.98"}, {"compound": "COc1ccc(NC(=O)Nc2ccc3c(c2)C(=O)N([C@H](C)CO)C[C@@H](C)[C@@H](CN(C)S(=O)(=O)c2cccs2)OCCCC[C@H](C)O3)cc1", "relative growth": "inactive: 1.06"}, {"compound": "C[C@@H]1CN([C@H](C)CO)C(=O)Cc2cc(NC(=O)Nc3cccc4ccccc34)ccc2O[C@@H]1CN(C)C(=O)Nc1ccccc1", "relative growth": "inactive: 1.03"}, {"compound": "C[C@H]1CN([C@@H](C)CO)C(=O)c2c(c3ccccc3n2C)-c2ccccc2CO[C@@H]1CN(C)Cc1cccc(C(=O)O)c1", "relative growth": "inactive: 1"}, {"compound": "COc1ccc(S(=O)(=O)N(C)C[C@H]2Oc3ccc(N(C)C)cc3CC(=O)N([C@H](C)CO)C[C@H]2C)cc1", "relative growth": "inactive: 1.02"}, {"compound": "CCCN(C)C[C@H]1OCCCC[C@@H](C)Oc2ccc(NC(=O)Nc3ccc4c(c3)OCO4)cc2C(=O)N([C@H](C)CO)C[C@@H]1C", "relative growth": "inactive: 1.01"}, {"compound": "CCOC(=O)[C@H](N)/C=C(\\C)CP(=O)(O)O", "relative growth": "inactive: 0.989"}, {"compound": "CC(C)(C)[S@](=O)N1Cc2cc(C(=O)N3CCc4ccccc4C3)nc(-c3cccc(-c4ccncc4)c3)c2[C@@H]1CCO", "relative growth": "inactive: 1.02"}]}]}
